Where two headings read alike, the source gives them in different places.
Experiments:
[1] = tested on: SARS-CoV-2 (strain USA_WA1/2020); assay: microbe, parasite or virus in culture; assay type: cell-based
Caco-2 cells = assay: Cytotoxicity in Caco-2 cells (CC50); assay type: cell-based

CN1CCN(c2ccc(C(=O)Nc3n[nH]c4ccc(Cc5cc(F)cc(F)c5)cc34)c(NC3CCOCC3)c2)CC1 [Entrectinib]
EC90 ([1]; Severe acute respiratory syndrome coronavirus 2, Caco-2 cells, strain USA_WA1/2020, read-out: EC90, SARS-CoV-2 in Caco-2): > 3.6 µM
Toxicity in Caco-2 cells (Caco-2 cells): toxic at the concentrations tested

COc1cc2c(Nc3ccc(Br)cc3F)ncnc2cc1OCC1CCN(C)CC1 [Vandetanib]
EC90 ([1]; Severe acute respiratory syndrome coronavirus 2, Caco-2, read-out: EC90, SARS-CoV-2 in Caco-2): 2 µM

From patent US20250332170A1, “VANDETANIB REDUCES INFLAMMATORY CYTOKINES AND AMELIORATES COVID-19” (Collaborations Pharmaceuticals, Inc., priority 2021, published 2025)
